Among all 150,000 compounds or so, about 540 (0.36%) showed an effect of 50% or more. The list shows a part of the results.
Each compound was assayed on Plasmodium falciparum (assay: Primary screen in NF54 nanoGlo assay, in single point, at 2uM, 72h; a lower Z score goes with more inhibition). Conditions: timepoint 72 hour.
Type: functional, Erythrocyte

Structure (SMILES) | % Inhibition [%] | Z score
Cc1nc(NC(=O)c2cccc(CC#N)c2)c(C(=O)NCCO)n1C | 10 | -0.92
Cc1ccc2oc(C(=O)N3CCOC[C@H]3C#N)cc2n1 | -17 | 1.97
CC(C)c1csc(CN2CCc3[nH]cnc3[C@@H]2c2ccoc2)n1 | -5 | 0.68
Cc1[nH]c(CN2CCN3C(=O)CN(C)C(=O)[C@@H]3C2)cc1C#N | -4 | 0.74
CC1CN(C(=O)c2c[nH]c(=O)[nH]2)C(C)CO1 (stereo not drawn) | -11 | 1.81
Cc1ccc([C@H](O)c2ccccn2)cc1NC(=O)C1CN(C2CCCCC2)C1 | 1 | -0.07
CCCCNC(=O)N(CC(=O)N(Cc1ccccc1)Cc1ccc(C)o1)C(C)C | 2 | -0.38
OCCNc1nc(-c2c[nH]c3ccccc23)ncc1F | -13 | 1.6
C[C@H](NC(=O)Nc1nccn(C)c1=O)c1ncc(-c2ccccc2)o1 | -7 | 0.74
Cc1cc(C(=O)N[C@@H](C)C(C)(F)F)cnn1 | 7 | -0.96
C[C@H](Oc1cccc(-n2ccc(-c3cnccn3)n2)c1)C(N)=O | -12 | 1.69
O=C(Nc1ccsc1C(=O)N[C@H]1CCCOCC1)c1ccncc1 | -8 | 1.19
O=S(=O)(CCc1ccccc1)c1nnc[nH]1 | -6 | 0.83
CCc1ccccc1CC(=O)N[C@H](C#N)C1CCCCC1 | -1 | 0.24
COC(=O)[C@H](NCC(=O)Nc1nc(C)cs1)c1c(C)cccc1C | 1 | -0.08
CCOc1cc(CCCNC(=O)c2cnn(C)c2)ccc1OC | 1 | -0.25
CC(C)[C@H](Cn1nccn1)NC(=O)CCc1c(Cl)cccc1Cl | -3 | 0.45
CCN1CCC(N(CCc2ccccn2)Cc2[nH]cnc2C)CC1 | -19 | 1.99
Cn1cc(NC(=O)N2CCOCC(F)(F)C2)c(C2CC2)n1 | 1 | -0.18
CCc1cc(CC)n(-c2nc3c(c(=O)[nH]c(=O)n3C)n2CCc2ccccc2)n1 | -26 | 2.37
C[C@H](N)c1ccc(CNC(=O)c2cn3c(n2)CCCC3)cc1 | 14 | -1.63
COc1ccc(C[C@@H](c2nc3ccccc3[nH]2)c2ncc(-c3ccccc3)s2)cc1 | -6 | 0.71
Cc1ccc(S(=O)(=O)Nc2cc3nc4ccccc4nc3n2CCc2ccccc2)cc1 | 100 | -10.64
COc1ccc([C@@H]2CCCN2C(=O)CN2CCCC2=O)cc1OC | -36 | 4.18
